In all, about 310,000 compounds went through this assay and about 14,000 (4.5%) showed an effect of 50% or more. The effect is printed as a negative number. This is one part of the list.
The compounds below were run against human ether-à-go-go-related gene (hERG) potassium channel (human, UniProt Q12809) (assay: primary screen, population patch clamp on CHO cells stably expressing hERG).
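Further: peak tail current of the secondary pulse compared with the same well before compound.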

Sequence of human ether-à-go-go-related gene (hERG) potassium channel (Q12809 whole entry, looked up): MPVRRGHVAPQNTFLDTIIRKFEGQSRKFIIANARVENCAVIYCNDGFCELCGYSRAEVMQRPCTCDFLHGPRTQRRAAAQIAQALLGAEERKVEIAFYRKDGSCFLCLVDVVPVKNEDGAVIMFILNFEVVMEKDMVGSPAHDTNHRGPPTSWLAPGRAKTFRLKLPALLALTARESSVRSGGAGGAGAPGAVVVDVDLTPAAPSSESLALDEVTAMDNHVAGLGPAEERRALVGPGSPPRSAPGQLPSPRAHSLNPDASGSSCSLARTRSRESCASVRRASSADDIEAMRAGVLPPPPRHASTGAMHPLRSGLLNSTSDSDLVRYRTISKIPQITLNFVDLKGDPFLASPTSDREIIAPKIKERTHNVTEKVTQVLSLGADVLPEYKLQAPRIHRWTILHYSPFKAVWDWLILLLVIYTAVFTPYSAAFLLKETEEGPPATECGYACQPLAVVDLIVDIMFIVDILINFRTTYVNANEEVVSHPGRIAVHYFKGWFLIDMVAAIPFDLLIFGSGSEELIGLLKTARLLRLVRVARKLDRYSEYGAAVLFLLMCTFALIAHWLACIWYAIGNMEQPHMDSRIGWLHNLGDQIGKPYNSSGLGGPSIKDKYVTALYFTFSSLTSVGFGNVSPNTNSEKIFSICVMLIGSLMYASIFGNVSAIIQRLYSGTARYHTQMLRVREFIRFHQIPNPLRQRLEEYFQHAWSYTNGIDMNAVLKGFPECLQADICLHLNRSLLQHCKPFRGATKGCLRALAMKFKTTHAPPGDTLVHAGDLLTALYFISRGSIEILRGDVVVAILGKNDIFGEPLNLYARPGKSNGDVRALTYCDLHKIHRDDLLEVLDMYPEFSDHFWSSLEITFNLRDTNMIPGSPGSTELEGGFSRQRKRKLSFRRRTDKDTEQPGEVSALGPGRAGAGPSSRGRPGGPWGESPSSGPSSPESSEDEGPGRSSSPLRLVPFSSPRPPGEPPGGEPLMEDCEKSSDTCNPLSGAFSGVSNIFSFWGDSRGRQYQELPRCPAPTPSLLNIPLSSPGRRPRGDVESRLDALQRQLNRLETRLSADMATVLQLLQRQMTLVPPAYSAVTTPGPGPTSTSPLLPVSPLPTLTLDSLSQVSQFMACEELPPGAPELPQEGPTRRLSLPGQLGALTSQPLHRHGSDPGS

SMILES | hERG current change (%, negative = inhibition) at 10uM [%]
Cc1ccc(-c2nc3ccccc3s2)cc1NC(=O)c1cc(-n2cnnc2)ccc1Cl | -4.7
CC(C)=C1C2CCC1C1C(=O)N(NC(=O)COc3ccc(Cl)c(C)c3)C(=O)C21 (stereo not drawn) | -18.7
O=C(COc1ccccc1Cl)N1CCN(c2ccc(F)cc2)CC1 | -6.04
CCOC(CNC(=O)c1ccc2c(c1)ncn2-c1ccc(F)c(F)c1)OCC | -19.8
CCn1c(-c2ccccc2SC)n[nH]c1=S | 11.3
CN(C(=O)C1CCCO1)c1nnc(-c2ccccn2)s1 (stereo not drawn) | 3.15
CC(C)OC(=O)CSc1ncnc2c1cnn2-c1ccccc1 | 12.6
COc1ccc2c(c1)c(CC(=O)Nc1cccc(S(N)(=O)=O)c1)c(C)n2C(=O)c1ccc(Cl)cc1 | 1.02
CNC(=O)COc1ccccc1C(=O)Nc1ccc2c(c1)oc1ccccc12 | 13.7
Cc1ccc(-n2c(-c3ccccc3)c[n+]3c2CCc2ccccc2-3)c(C)c1.[Br-] | -93
O=C(N/N=C/c1ccccn1)c1cccc(NC(=O)c2ccccc2Cl)c1 | -4.9
COc1ccc(NC(=O)c2ccc(-c3ccc([N+](=O)[O-])cc3)o2)cc1OC | -64.9
CSc1ncccc1C(=O)OCc1ccc([N+](=O)[O-])cc1 | 6.39
CCNC(=O)NC(=O)C(C)N1C(=O)NC(c2ccccc2)(c2ccccc2)C1=O (stereo not drawn) | -43.6
COc1ccccc1CC(=O)Nc1cccc(C(=O)Nc2nccs2)c1 | -0.755
Cc1ccc(NC(=O)/C(=C/C=C/c2ccccc2)NC(=O)c2ccccc2)cc1 | -2.74
Cc1ccc(F)c(NC(=O)/C(C#N)=C(\O)c2ccc(C(C)(C)C)cc2)c1 | 15.9
Cc1ccc(C(=O)N/N=C\c2ccccn2)cn1 | 6.09
O=C(c1ccncc1)N1CCN(S(=O)(=O)c2ccc3ccccc3c2)CC1 | -6.39
O=C(Nc1ccc(Cl)c(S(=O)(=O)N2CCOCC2)c1)c1ccccc1-c1ccc(C(F)(F)F)cc1 | -1.69
O=[N+]([O-])c1cc(CN2CCCCCC2)ccc1O | 9.47

SMILES | hERG current change (%, negative = inhibition) at 10uM [%]
CCn1c(=O)c(C(=O)CN2CCN(S(=O)(=O)c3ccc(C)cc3C)CC2)c(N)n(Cc2ccccc2)c1=O | -21.2
Cc1sc(Nc2ccc([N+](=O)[O-])cc2)nc1-c1c(C)n(C)n(-c2ccccc2)c1=O | -34.3
COc1ccc(NC(=O)CNC(=O)Cn2c(C)cc3ccccc3c2=O)c(OC)c1 | -28.2
CCOC(=O)C1CCN(C(=O)C2CCN(S(=O)(=O)c3cccc4nsnc34)CC2)CC1 | -16.1
O=C(CCCCCCC(=O)NCc1ccccc1)NCc1ccccc1 | 10.6
CCN1CCN(C(=O)C2c3cc(OC)c(OC)cc3C(=O)N3CCc4ccccc4C23)CC1 (stereo not drawn) | 4.31
C[N+]1([O-])[C@@H]2Cc3cc4c(cc3[C@@H]1Cc1cc3c(cc12)OCO3)OCO4 (stereo partly drawn) | 0.536
O=S1(=O)CCS(=O)(=O)C1c1ccccc1 | -1.95
CC(=O)c1ccc(NC(=S)N2CCCCCC2)cc1 | -3.56
O=C(NC1CCCCC1)N1CCC(c2nc3ccc(Cl)cc3[nH]2)CC1 | -34.3
COc1ccc(-c2nc3c(Br)c(N)c(Br)cc3o2)cc1 | 7.14
COc1ccc(OCCn2nnc(-c3ccc(Cl)cc3)n2)cc1 | 9.66
CCOc1cc(C)c(Cl)cc1S(=O)(=O)NC1CC(C)(C)NC(C)(C)C1 | 4.78
CC(=O)Nc1ccc(NC(=O)CSc2ccc(-c3cccs3)nn2)cc1 | 11.4
Cc1ccc(S(=O)(=O)N/N=C/c2ccccc2O)cc1 | 12.9
C/C(=N/NC(=O)c1cccc(N2CCCC2=O)c1)c1ccncc1 | 13
O=C(NNc1cc(Cl)cc(Cl)c1)C1CCC1 | 21.9
O=C(c1ccco1)c1cn(Cc2ccccc2Cl)c2ccccc12 | 22.7
CCOC(=O)c1c(-c2ccc(-c3ccccc3)cc2)csc1NC(=O)CNCCN(C)C.Cl | -22.6
Cc1nc2sccn2c(=O)c1S(=O)(=O)Nc1ccc(N2CCN(S(C)(=O)=O)CC2)cc1 | -2.74
O=c1[nH]ncc(N/N=C\c2ccc(O)cc2O)c1Cl | 6.72

SMILES | hERG current change (%, negative = inhibition) at 10uM [%]
O=C(c1ccc([N+](=O)[O-])o1)N1CCN(Cc2ccccc2)CC1 | 2.99
COc1ccc(/C=C(\NC(=O)c2ccco2)C(=O)NCc2ccco2)cc1 | 8.89
C#CCNC(=O)C1=C[C@@H](c2ccc(C#C)cc2)C[C@@H](OCCCCO)O1 | -3.88
O=Cc1ccc(OCC(=O)NCC2CCCO2)cc1 (stereo not drawn) | 14.2
CC1(C)CC(=O)C=C(NCCO)C1 | -0.4
COCC(=O)N1CCC(Oc2ccc(C(=O)NCCCC3CCCC3)cc2)CC1 | -71.5
NNC(=O)Cn1nc2n(c1=O)-c1ccccc1SC2 | 27.3
CC(=O)N1c2ccc(S(=O)(=O)NCCC(=O)Nc3ccc(OC(F)(F)F)cc3)cc2CC1C (stereo not drawn) | -13.6
CCc1nnc(NC(=O)CN2C(=O)CCC2=O)s1 | 16.3
O=C(Nc1cccc(C(=O)O)c1)/C(=C\c1ccc2c(c1)OCO2)NC(=O)c1ccccc1Cl | 3.5
CC(C)NC(=O)COc1coc(CN2CCN(c3ccccc3F)CC2)cc1=O | 12.8
O=C(NCC1CCCO1)c1cc2n(n1)C(C(F)(F)F)CC(c1ccc(F)cc1)N2 (stereo not drawn) | -15.4
Cc1cc(C)n(C(CC(=O)O)C(=O)O)n1 (stereo not drawn) | 16
Fc1ccc(-c2nc3c(-c4ccccc4)cnn3cc2CCN2CCOCC2)cc1 | -15.2
COc1ccc(CCNC(=O)CCc2ccccc2)cc1OC | 3.43
Cc1ccc(CN2Cc3cccc4c3[C@@H](CC2=O)[C@H](O)[C@H](O)C4)cc1 | 19.6
COc1cccc(N2CCN(C(=O)c3oc4ccccc4c3NC(=O)CCc3cc(OC)no3)CC2)c1 | -36.3
Cc1cccn2c(=O)c3cc(C(=O)N4CCN(C(=O)c5ccco5)CC4)n(C)c3nc12 | -22.4
COc1cc(C(=S)N2CCOCC2)ccc1OC(=O)c1ccccc1[N+](=O)[O-] | 0.202
CCCN1C2=NCCN2c2cc(C)c(C)cc21.Cl | -30.7
C=C1N2CCC(CC2)C1(O)c1ccc(C)cc1.Cl (stereo not drawn) | -1.04

SMILES | hERG current change (%, negative = inhibition) at 10uM [%]
CS(=O)(=O)N(CC(=O)O)Cc1cccc(CN(CC(=O)O)S(C)(=O)=O)c1 | 6.35
Cc1ccc(CN(C)C(=O)c2c(C)nn(-c3ccccc3)c2C)cc1 | 8.12
Cc1ccc2c(c1N)C(=O)c1ccccc1C2=O | 18.5
CCOC(=O)CC(=O)CSc1nc(-c2ccccc2)cc(-c2ccc(Cl)cc2)c1C#N | 11.6
CC1CCN(Cc2c(C(=O)N/N=C/c3ccc(C(F)(F)F)cc3)nnn2-c2nonc2N)CC1 | -1.89
COc1cccc(C(=O)NCC(=O)N/N=C/c2ccc3c(c2)OCO3)c1 | -5.63
O=C(NCCC1CCCCN1S(=O)(=O)c1ccc(Cl)cc1)C(=O)NCc1ccco1 (stereo not drawn) | -19.6
N/C(=N\[N+](=O)[O-])N1CCN(C(=O)OC2CCCC2)CC1 | 19.4
CC[C@@]12C(=O)N(c3ccc(C)cc3)C(=O)N1[C@H](c1ccc(OC)cc1)[C@@H]1C(=O)N(C(C)(C)C)C(=O)[C@@H]12 | 1.6
CCCCN(C)CCCNC(=O)c1ccc2c(c1)NC(=O)C(N1CCOCC1)S2 (stereo not drawn) | 12.1
CCOc1cc2c(cc1OCC)-n1cccc1C(c1cccc(F)c1F)NC2.Cl (stereo not drawn) | 9.96
Cc1ccc(S(=O)(=O)Nc2cccc(C(=O)N3CCC(C(N)=O)CC3)c2)cc1 | -0.822
O=C(CN(c1ccc(F)cc1)S(=O)(=O)c1ccc2c(c1)OCCO2)NCc1ccccn1 | -24.6
Cc1ccc(NC(=O)CNc2cccc(S(=O)(=O)N3CCCC3)c2)cc1F | -0.0102
CCc1ccc(-c2nnn(CC(=O)N(C3CCCC3)C3CCS(=O)(=O)C3)n2)cc1 (stereo not drawn) | 2.13
CCCc1ccc(C(=O)NNc2cccc(C)c2)cc1 | 2.49
Cc1ccccc1C1C(C#N)=C2N=C(N)c3c(sc4c3CCCCC4)N2C2=C1C(=O)CCC2 (stereo not drawn) | -10.1
CC1CCN(C(=O)c2cc(-c3ccccc3O)on2)CC1 | 13.4
CCC1(c2ccc(Cl)cc2)NC(=O)N(Cc2ccc(C(=O)OC)cc2)C1=O (stereo not drawn) | 15.4
O=C(NCc1ccccn1)C1CC(c2ccc(Cl)c(Cl)c2)=NO1 (stereo not drawn) | 6.08
CCC1=Nc2cc(C(=O)NCCCN3CCN(C)CC3)ccc2Sc2ccccc21 | 20.2
